Test results taken from US9120851B2, “Human antibodies to human angiopoietin-like protein 4” (Regeneron Pharmaceuticals, Inc., priority 2009, dated 2015).

Columns and labels:
humanized ANGPTL4 mice = test: Serum TG levels in humanized ANGPTL4 mice; type: in vivo, mouse; settings: for Serum TG: mean±SEM
Procedure: The effect of anti-hANGPTL4 antibodies H1H268P and H1H284P on serum TG levels was determined in mice expressing the ANGPTL4 protein containing the human N-terminal coil-coil region (“humanized ANGPTL4 mice”). The humanized ANGPTL4 mouse was made by replacing first three exons of the mouse Angptl4 gene (the N terminal coil-coil region) with the corresponding human N-terminal coil-coil ANGPLT4 sequence in C57BL6/129 (F1H4) embryonic stem cells. After germ line transmission was established, heterozygous mice (ANGPTL4hum/+) were bred together to generate homozygous mice [ANGPTL4hum/hum or hANGPTL4(+/+)] on a C57BL6 background. Humanized ANGPTL4 mice were pre-bled 7 days before (day −7) the experiment and put into groups of six mice each for each antibody tested. Antibodies (H1H268P, H1H284P and isotype-matched (hIgG1) control with no known cross-reactivity to mouse antigens) were administered at 10 mg/kg dose by subcutaneous injection. Mice were bled after 4 hours of fasting at days 1, 4, 7 and 11 after antibody injection; and serum TG levels were determined by ADVIA® 1800 Chemistry System (Siemens). Average TG levels were calculated for each time point for each antibody.
The effect of anti-hANGPTL4 antibodies, H4H268P2 and H4H284P, on serum TG levels was determined in humanized ANGPTL4 mice. Humanized ANGPTL4 mice were pre-bled 7 days before the experiment and put into groups of six mice each for each antibody tested. Antibodies (H4H268P2, H4H284P and isotype-matched (hIgG4) control with no known cross-reactivity to mouse antigens) were administered at 10 mg/kg dose by subcutaneous injection. Mice were bled after 4 hours of fasting at days 1, 4, 7 and 11 after antibody injection; and TG levels were determined in the serum by ADVIA® 1800 Chemistry System (Siemens). Average TG levels were calculated for each time point for each antibody.

[1] = Pharmacokinetic clearance in wild-type and hANGPTL4(+/+) mice, sandwich ELISA; type: in vivo, mouse
Procedure: Pharmacokinetic clearance rates of anti-hANGPTL4 antibodies H4H268P2 and H4H284P were determined in wild-type mice and in transgenic mice expressing human ANGPTL4 [hANGPTL4(+/+) mice]. The strain background for both wild-type and transgenic mice was C57BL6 (75%) and 129Sv (25%). Separate cohorts consisting of 5 mice each of either wild-type or hANGPTL4(+/+) mice received subcutaneously (s.c.) 1 mg/kg of H4H268P2, H4H284P, or an isotype-matched (hIgG4) control with irrelevant specificity. Blood samples were collected at 0 hour, 6 hours, 1 day, 2 days, 3 days, 4 days, 7 days, 10 days, and 15 days, 22 days, and 30 days after the injection. Serum levels of human antibodies were determined by a sandwich ELISA. Briefly, a goat polyclonal anti-human IgG (Fc-specific) capture antibody (Jackson ImmunoResearch, PA) was coated in 96-well plates at a concentration of 1 μg/mL and incubated overnight at 4° C. After the plates were blocked with BSA, serum samples in a six-point serial dilution and reference standards of the respective antibody in a twelve-point serial dilution were added to the plate and incubated for one hour at room temperature. After washing with a suitable washing buffer, captured human antibodies were detected using the same goat polyclonal anti-human IgG (Fc-specific) antibody conjugated with horse radish peroxidase (HRP) (Jackson ImmunoResearch, PA) and developed by standard colorimetric response using tetramethylbenzidine (TMB) substrate, measuring absorbance at 450 nm in a plate reader. Concentrations of human antibodies in serum were determined using the reference standard curve generated for the same sample plate.

[2] = system: obese rhesus monkeys (Macaca mulatta); test: Phase I pilot PK/PD study in obese rhesus monkeys; type: in vivo, rhesus monkey (Macaca mulatta); settings: 10 mg/kg IV, any time point after infusion
Procedure: Phase I: In a pilot non-GLP pharmacokinetics/pharmacodynamic (PK/PD) study, H4H268P2 and H4H284P were administered as a single bolus intravenous (IV) injection, to obese rhesus monkeys (Macaca mulatta). Rhesus monkeys were selected because this species is closely related, both phylogenically and physiologically, to humans and is a species commonly used for nonclinical toxicity evaluations. Obese monkeys that had been on a high fat diet for greater than 6 months were selected because they typically display moderately elevated TG levels (i.e., mean >100 mg/dL; hyper-TG). Eight confirmed healthy, male monkeys were acclimated and assigned to the study for baseline assessment for 7 days prior to dosing. All animals received a vehicle (10 mM histidine, pH 6) IV infusion on Day −5, after which four of them received H4H268P2 and another four H4H284P at 10 mg/kg IV on day 0.
Serum samples were collected from the baseline period through day 35 post-dosing and assessed for serum lipid levels by ADVIA® 1800 Chemistry System (Siemens). The average baseline for each animal was determined based on the samples taken on Days −7, −5 and 0. […] Thus the data analysis was done with 3 animals in each group. Percent (%) changes of serum TG levels from the baseline were determined for each animal and averaged for each Ab group.

B1: H4H284P: H1H284P converted to hIgG4 isotype (constant region SEQ ID NO:483, S108P hinge mutation) (antibody)
heavy: QVQLVESGGGVVQPGRSLRLSCAASGFTFSSYGMHWVRQAPGKGLEWMAVISFDGGNKNNADSVKGRFTISRDNSKNTLYLQMNSLRAEDTAVYYCAKEGDRSGHPYFYYYGLDVWGQGTTVTVSASTKGPSVFPLAPCSRSTSESTAALGCLVKDYFPEPVTVSWNSGALTSGVHTFPAVLQSSGLYSLSSVVTVPSSSLGTKTYTCNVDHKPSNTKVDKRV[human IgG4 Fc with S228P (EU numbers) not printed]
VL: DIQLTQSPSFLSASVGDRVTITCWASQGISSYLAWYQQKPGKAPKLLIYAASTLQSGVPSRFSGSGSETEFTLTISSLQPEDFATYYCQQLHSYPLTFGGGTKVEIK
With B1 the “Serum TG” value (humanized ANGPTL4 mice; day 1 after injection, 10 mg/kg s.c., 4 h fasting) was 86 ± 8.6 mg/dL, the “reduction in circulating TG compared to isotype-matched control antibody, in words” value (humanized ANGPTL4 mice; day 4, 10 mg/kg s.c.) was “significant reduction” and the “Serum TG” value (humanized ANGPTL4 mice; day 4 after injection, 10 mg/kg s.c., 4 h fasting) was 69 ± 6.4 mg/dL. The “Serum TG” value (humanized ANGPTL4 mice; day 7 after injection, 10 mg/kg s.c., 4 h fasting) was 71 ± 11 mg/dL, the “Serum TG” value (humanized ANGPTL4 mice; day 11 after injection, 10 mg/kg s.c., 4 h fasting) was 83 ± 7.3 mg/dL and the “Serum TG” value (humanized ANGPTL4 mice; day −7 (pre-bleed)) was 103 ± 8.0 mg/dL. The Cmax ([1]; Wild-type mice, 1 mg/kg s.c.) was 15700 ng/mL, the “30-day AUC, fold less than that for H4H268P2” value ([1]; hANGPTL4(+/+) mice) was “about 5 fold” and the Cmax ([1]; hANGPTL4(+/+) mice, 1 mg/kg s.c.) was 5860 ng/mL. The AUC ([1]; hANGPTL4(+/+) mice, 1 mg/kg s.c., over the 30-day period) was 7600 ng·h/mL and the “injection site reactions or other adverse effects” value [2] was “No injection site reactions or other adverse effects were observed”.
